In article PMC4242493:
Some of the results follow. The list includes weakly bound sequences.

biological target: MaxL homodimer (UniProt P61244); test: universal protein-binding microarray (PBM); details: PBS-based mixture, 10 nM His-tagged protein dimer, 2% milk, 200 ng/uL BSA, 50 ng/uL salmon testes DNA, 0.02% TX-100; detection with Alexa 488 anti-His …; high values mean tight binding; most listed sequences are background and not binding sites; double strand, one strand shown
Sequence of UniProt P61244 (P61244 whole entry): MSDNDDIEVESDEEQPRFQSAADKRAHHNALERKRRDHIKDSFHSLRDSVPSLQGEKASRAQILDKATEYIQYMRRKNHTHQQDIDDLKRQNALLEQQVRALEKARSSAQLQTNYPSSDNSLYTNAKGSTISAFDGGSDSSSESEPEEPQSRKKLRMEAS

How did the binding signal (normalized occupancy) turn out when CCACCACA was run?
Its binding signal (normalized occupancy) is 0.0826.

ACCCTTTG was tested. Which binding signal (normalized occupancy) did it give?
The binding signal (normalized occupancy) was 0.0783.

How did the binding signal (normalized occupancy) turn out when ATTACGGG was run?
Its binding signal (normalized occupancy) is 0.0754.

CGGCCCAC was tested. Which binding signal (normalized occupancy) did it give?
Its binding signal (normalized occupancy) is 0.0748.

Which binding signal (normalized occupancy) does the source give for AGTGACCG here?
The binding signal (normalized occupancy) was 0.0736.

AACATGTA was tested. Which binding signal (normalized occupancy) did it give?
The binding signal (normalized occupancy) was 0.0923.

Which binding signal (normalized occupancy) does the source give for AGCTCGGC here?
Its binding signal (normalized occupancy) is 0.0685.

How did the binding signal (normalized occupancy) turn out when ACTCCCAA was run?
The binding signal (normalized occupancy) was 0.0732.

For ACAACGAT, which binding signal (normalized occupancy) is on record?
Its binding signal (normalized occupancy) is 0.0761.

How did the binding signal (normalized occupancy) turn out when GGGAATGA was run?
Its binding signal (normalized occupancy) is 0.0828.

With GACTACGA as the sequence, how does the binding signal (normalized occupancy) read?
The binding signal (normalized occupancy) was 0.0681.

Which binding signal (normalized occupancy) does the source give for AGATTACG here?
The binding signal (normalized occupancy) was 0.0787.

Which binding signal (normalized occupancy) does the source give for CTTACACC here?
Its binding signal (normalized occupancy) is 0.0763.

For CGTCACAG, which binding signal (normalized occupancy) is on record?
Its binding signal (normalized occupancy) is 0.0813.

With AGCCGTGG as the sequence, how does the binding signal (normalized occupancy) read?
Its binding signal (normalized occupancy) is 0.0713.

How did the binding signal (normalized occupancy) turn out when ATTACCCA was run?
The binding signal (normalized occupancy) was 0.0818.

CCAAGTAC was tested. Which binding signal (normalized occupancy) did it give?
Its binding signal (normalized occupancy) is 0.0755.

With AAGAGAGA as the sequence, how does the binding signal (normalized occupancy) read?
The binding signal (normalized occupancy) was 0.0687.

For CCTCCCTA, which binding signal (normalized occupancy) is on record?
The binding signal (normalized occupancy) was 0.0736.

GTCACAAC was tested. Which binding signal (normalized occupancy) did it give?
Its binding signal (normalized occupancy) is 0.0761.

CTCTGGTA was tested. Which binding signal (normalized occupancy) did it give?
The binding signal (normalized occupancy) was 0.0732.

How did the binding signal (normalized occupancy) turn out when AGACCAAG was run?
Its binding signal (normalized occupancy) is 0.0717.

Which binding signal (normalized occupancy) does the source give for CATTCGTC here?
The binding signal (normalized occupancy) was 0.0749.

AATCCATT was tested. Which binding signal (normalized occupancy) did it give?
Its binding signal (normalized occupancy) is 0.0725.

CACGGAAA was tested. Which binding signal (normalized occupancy) did it give?
Its binding signal (normalized occupancy) is 0.0682.

For AAGAAGAT, which binding signal (normalized occupancy) is on record?
Its binding signal (normalized occupancy) is 0.0729.

GGTGGAAA was tested. Which binding signal (normalized occupancy) did it give?
The binding signal (normalized occupancy) was 0.0745.

For TAGGATAA, which binding signal (normalized occupancy) is on record?
Its binding signal (normalized occupancy) is 0.0769.

Which binding signal (normalized occupancy) does the source give for CGGGTTAC here?
The binding signal (normalized occupancy) was 0.075.

How did the binding signal (normalized occupancy) turn out when AGGGTACG was run?
Its binding signal (normalized occupancy) is 0.0744.

For GCCGCTCC, which binding signal (normalized occupancy) is on record?
The binding signal (normalized occupancy) was 0.066.

How did the binding signal (normalized occupancy) turn out when AAAACAGC was run?
The binding signal (normalized occupancy) was 0.0716.

With CGGCACTC as the sequence, how does the binding signal (normalized occupancy) read?
Its binding signal (normalized occupancy) is 0.0701.

For GAAGTGCA, which binding signal (normalized occupancy) is on record?
Its binding signal (normalized occupancy) is 0.0728.

Which binding signal (normalized occupancy) does the source give for GTTGGAGA here?
Its binding signal (normalized occupancy) is 0.0742.

How did the binding signal (normalized occupancy) turn out when GAACCGCC was run?
The binding signal (normalized occupancy) was 0.0683.

With CTGCCCAG as the sequence, how does the binding signal (normalized occupancy) read?
Its binding signal (normalized occupancy) is 0.0664.

With GCCCGTCA as the sequence, how does the binding signal (normalized occupancy) read?
The binding signal (normalized occupancy) was 0.0701.

For CTTTCAAA, which binding signal (normalized occupancy) is on record?
The binding signal (normalized occupancy) was 0.0741.

With CGACACAC as the sequence, how does the binding signal (normalized occupancy) read?
The binding signal (normalized occupancy) was 0.0855.

Which binding signal (normalized occupancy) does the source give for GACAATTA here?
Its binding signal (normalized occupancy) is 0.0791.

With GCCGTCCC as the sequence, how does the binding signal (normalized occupancy) read?
The binding signal (normalized occupancy) was 0.069.

CGCACAAC was tested. Which binding signal (normalized occupancy) did it give?
Its binding signal (normalized occupancy) is 0.0757.

CATGTACG was tested. Which binding signal (normalized occupancy) did it give?
Its binding signal (normalized occupancy) is 0.0957.

How did the binding signal (normalized occupancy) turn out when GCCGTCGC was run?
Its binding signal (normalized occupancy) is 0.0689.

Which binding signal (normalized occupancy) does the source give for AGGCGGAA here?
The binding signal (normalized occupancy) was 0.0698.

For ACATATAT, which binding signal (normalized occupancy) is on record?
Its binding signal (normalized occupancy) is 0.0881.

With TAAGCCAA as the sequence, how does the binding signal (normalized occupancy) read?
Its binding signal (normalized occupancy) is 0.0723.

Which binding signal (normalized occupancy) does the source give for GTGCCTTA here?
Its binding signal (normalized occupancy) is 0.0789.

How did the binding signal (normalized occupancy) turn out when AGATGGAT was run?
Its binding signal (normalized occupancy) is 0.081.

CTCCACGA was tested. Which binding signal (normalized occupancy) did it give?
Its binding signal (normalized occupancy) is 0.0817.

How did the binding signal (normalized occupancy) turn out when GCACAGAA was run?
Its binding signal (normalized occupancy) is 0.0697.

GGCTGCCA was tested. Which binding signal (normalized occupancy) did it give?
The binding signal (normalized occupancy) was 0.0704.

How did the binding signal (normalized occupancy) turn out when GGATTCCA was run?
The binding signal (normalized occupancy) was 0.0852.

With TGCTTACA as the sequence, how does the binding signal (normalized occupancy) read?
The binding signal (normalized occupancy) was 0.0879.

For GCAACACC, which binding signal (normalized occupancy) is on record?
Its binding signal (normalized occupancy) is 0.0794.

ATCAAAGC was tested. Which binding signal (normalized occupancy) did it give?
The binding signal (normalized occupancy) was 0.074.

How did the binding signal (normalized occupancy) turn out when AAGGCCAA was run?
Its binding signal (normalized occupancy) is 0.0718.

For CGCTTAGA, which binding signal (normalized occupancy) is on record?
Its binding signal (normalized occupancy) is 0.0747.

For AAGCCCTC, which binding signal (normalized occupancy) is on record?
The binding signal (normalized occupancy) was 0.0696.

How did the binding signal (normalized occupancy) turn out when AAGGGTCA was run?
The binding signal (normalized occupancy) was 0.0747.

For AGAGTCAA, which binding signal (normalized occupancy) is on record?
Its binding signal (normalized occupancy) is 0.077.

How did the binding signal (normalized occupancy) turn out when AACCACTA was run?
The binding signal (normalized occupancy) was 0.0774.

ATTGCGTG was tested. Which binding signal (normalized occupancy) did it give?
Its binding signal (normalized occupancy) is 0.0828.

For CTGAGGAA, which binding signal (normalized occupancy) is on record?
The binding signal (normalized occupancy) was 0.0723.

AAGCGACA was tested. Which binding signal (normalized occupancy) did it give?
The binding signal (normalized occupancy) was 0.0721.

With ACGGCAGC as the sequence, how does the binding signal (normalized occupancy) read?
Its binding signal (normalized occupancy) is 0.073.

How did the binding signal (normalized occupancy) turn out when CTGCATAC was run?
Its binding signal (normalized occupancy) is 0.0825.

With CAGGCGTA as the sequence, how does the binding signal (normalized occupancy) read?
Its binding signal (normalized occupancy) is 0.0683.

Which binding signal (normalized occupancy) does the source give for CCGACGTA here?
Its binding signal (normalized occupancy) is 0.0679.

Which binding signal (normalized occupancy) does the source give for GACGGAAC here?
Its binding signal (normalized occupancy) is 0.0708.

Which binding signal (normalized occupancy) does the source give for GAGGTGGA here?
Its binding signal (normalized occupancy) is 0.0765.

With AGGTCCTC as the sequence, how does the binding signal (normalized occupancy) read?
Its binding signal (normalized occupancy) is 0.073.

With CCTAACCC as the sequence, how does the binding signal (normalized occupancy) read?
The binding signal (normalized occupancy) was 0.0784.

With ATACTTCA as the sequence, how does the binding signal (normalized occupancy) read?
The binding signal (normalized occupancy) was 0.0738.

How did the binding signal (normalized occupancy) turn out when AGGGCACC was run?
The binding signal (normalized occupancy) was 0.0695.

AGTGTTTC was tested. Which binding signal (normalized occupancy) did it give?
Its binding signal (normalized occupancy) is 0.0789.

With AAAACTAT as the sequence, how does the binding signal (normalized occupancy) read?
The binding signal (normalized occupancy) was 0.0769.

Which binding signal (normalized occupancy) does the source give for ATAAGTTA here?
Its binding signal (normalized occupancy) is 0.0796.

How did the binding signal (normalized occupancy) turn out when CTGTGGGC was run?
Its binding signal (normalized occupancy) is 0.0715.

How did the binding signal (normalized occupancy) turn out when AAAGGCAC was run?
Its binding signal (normalized occupancy) is 0.0777.

With GTTTGCCA as the sequence, how does the binding signal (normalized occupancy) read?
Its binding signal (normalized occupancy) is 0.0789.

Which binding signal (normalized occupancy) does the source give for AACGTGTG here?
Its binding signal (normalized occupancy) is 0.108.

ACCCTTTC was tested. Which binding signal (normalized occupancy) did it give?
The binding signal (normalized occupancy) was 0.0794.

How did the binding signal (normalized occupancy) turn out when CTAATCAC was run?
Its binding signal (normalized occupancy) is 0.0815.

Which binding signal (normalized occupancy) does the source give for TCCATCAA here?
Its binding signal (normalized occupancy) is 0.0818.

How did the binding signal (normalized occupancy) turn out when AGGCCGAC was run?
The binding signal (normalized occupancy) was 0.0677.

With AAATTTGC as the sequence, how does the binding signal (normalized occupancy) read?
Its binding signal (normalized occupancy) is 0.0681.

For CTCTTTGA, which binding signal (normalized occupancy) is on record?
The binding signal (normalized occupancy) was 0.0683.

How did the binding signal (normalized occupancy) turn out when CCCAAAGG was run?
The binding signal (normalized occupancy) was 0.0621.

For ACTGCTTC, which binding signal (normalized occupancy) is on record?
The binding signal (normalized occupancy) was 0.0747.

How did the binding signal (normalized occupancy) turn out when GGAGCATA was run?
The binding signal (normalized occupancy) was 0.0843.

For AGCCGTAC, which binding signal (normalized occupancy) is on record?
The binding signal (normalized occupancy) was 0.0707.

Which binding signal (normalized occupancy) does the source give for AGAGGGAG here?
The binding signal (normalized occupancy) was 0.0733.
